How the values were obtained:
[1] = Body weight in PCa metastasis mouse model; format: in vivo; conditions: BALB/C nude mice; i.p. 10 mg/kg twice a week for three weeks
Method: (§1) To evaluate the effect of gremlin1 antibody on prostate cancer metastases in the lung. PC3 cells (ATCC) were transfected with plasmid constitutively expressing luciferase. PC3-luc cells were collected from logarithmic phase of growth and suspended with 1×10^6 cells in 80 ml basic media (DMEM). The cell suspension was then injected intracardiacally into BALB/C nude mice's heart ventricles (Shanghai SLAC Laboratory Animal). Gremlin1 hybridoma antibody 14E3 or isotype control was given intraperitoneally twice a week for three weeks at a dose of 10 mg/kg. Every two days, the body weight was measured. Mice were anesthetized and administered with D-luciferein (ThermoFisher, L2916) at 15 mg/kg for 5 mins. The Images were captured by the in vivo imaging system (Caliper IVIS bioluminescence system, Caliper LifeScience. USA).

[2] = molecular target: T1, hGREM1 (Homo sapiens, UniProt O60565); assay: ELISA affinity and specificity of 14E3; format: binding
T1 sequence (O60565 25-184): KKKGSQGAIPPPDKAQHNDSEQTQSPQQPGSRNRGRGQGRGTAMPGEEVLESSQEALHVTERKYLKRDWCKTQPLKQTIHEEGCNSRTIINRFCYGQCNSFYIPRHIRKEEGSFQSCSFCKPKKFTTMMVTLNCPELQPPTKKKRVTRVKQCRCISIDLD
Method: (§2) 14E3 was tested to target GREM1 in human PCa. The affinity and specificity of this antibody to hGREM1 was verified by ELISA (FIG. 12A). […] This antibody potentiated the anti-tumor effect of Enzalutamide in AR dependent LNCaP cells (FIG. 12B, 12C, 10K, 10L).

[3] = test system: PC3 cells; assay: Sphere formation, proliferation and apoptosis of PC3 cells; format: cell-based, human
From the text: Metastatic prostate cancer is a devastating disease and most cancers progress upon serial treatments with either androgen receptor antagonist or chemotherapy. One of the key cell types resistant to these treatments are cells with stem cells like property which has the capability of forming tumor spheres in suspension culture. To explore the role of GREM1 in the progression of CRPC, we utilized AR independent CRPC cell line PC3, as well as the AR dependent PCa cell line LNCaP and LAPC4. We generated cell sublines with loss or gain of GREM1 expression (FIGS. 3A, 4A and 5A).
as §2

[4] = test system: BMPRII knockout LNCaP cells; assay: Effect of 14E3 on BMPRII knockout PCa cells; format: cell-based, human; conditions: BMPRII knockout by CRISP/Cas9; LNCaP cell proliferation and sphere formation
[5] = test system: LNCaP cells; assay: Sphere formation, proliferation and apoptosis of LNCaP cells; format: cell-based, human
Method: as §2
14E3 was tested to target GREM1 in LNCaP PCa cells.

[6] = test system: LNCaP-PSA cells; assay: LNCaP-PSA reporter cell assay (PSA-low population, flow cytometry); format: cell-based; conditions: 1 ug/ml human gremlin with serially diluted antibody; dose-dependent; day 7
From the text: In order to assess the role of gremlin1 in modulating tumor prostate cell growth, we tested the antibodies provided herein in an assay involving prostate cancer cell LNCaP. This cell line was transfected with a PSA promoter driven GFP expression lentivirus plasmid. PSA is known as a differentiated marker of prostate cell and prostate cancer cells with low level of PSA represent poorly differentiated or undifferentiated prostate cancer cells. These cells usually have stem cell like property and have more aggressive growth property. The LNCaP reporter cell assay is briefly described below.
LNCaP-PSA cells were plated in 24-well plates at 10000/well in RPMI 1640/10% FBS (GIBCO), 1% P/S (complete media) and incubated at 37° ° C. and 5% CO2 overnight. The next day, remove media, 1 ug/ml human gremlin (ACRO) or human gremlin with serially diluted antibodies were added to the cells. Change medium every three days. On day 7, remove media from the wells, wash with PBS twice, run flow cytometer (Bechman) using FITC channel.

[7] = test system: FGFR1/MEK/ERK signaling pathway; assay: FGFR1/MEK/ERK phosphorylation in PCa cell lines (immunoblotting); format: cell-based, human
Method: In order to test whether Gremlin1 promoted the FGFR-MAPK signaling, we first performed analysis of the expression levels of the four FGFRs in CRPC patients. […] We treated LNCaP and PC3 with GREM1 in different concentrations (1 ng/ml, 10 ng/ml, 100 ng/ml) and examined phosphorylation levels of FGFR1, MEK and ERK.
MAPK signaling can be activated through many membrane receptors besides FGFR. To test whether the activation of MAPK pathway by GREM1 was via FGFR, we constructed a FGFR1 knockout LNCaP subline by the CRISPR/Cas9 method. […] To further test whether the tumor promoting effect of GREM1 was through FGFR, we utilized small molecule inhibitors of FGFR or EGFR.
14E3 was tested to target GREM1 in human PCa.

[8] = test system: PC3 tumor; assay: PC3 CRPC model with castration; format: in vivo; conditions: castrated Balb/c nude mice; i.p. 10 mg/kg twice a week; vs mouse IgG2a
Method: Tumor growth inhibition activity of 14E3 in PC3 CRPC model with castration was studied. Briefly, PC3 cells were subcutaneously implanted into Balb/c nude mice at 1×10^6 cells per mouse and then mice were treated with castration surgery to make CRPC (castration-resistant prostate cancer) model. When tumor volume grew to 100 mm^3 (Day 20), mice were treated with either isotype control mouse IgG2a or 14E3 hybridoma antibody (mlgG2a). Each group had 8 mice and antibodies were given intraperitoneally (i.p.) at 10 mg/kg twice a week. Tumor volume was measured twice a week in two dimensions using a caliper (INSIZE).

[9] = test system: PC3-luc cells; assay: PC3-luc intracardiac injection PCa metastasis mouse model; format: in vivo; conditions: BALB/C nude mice, i.p. 10 mg/kg twice a week for three weeks
Method: as §1

[10] = test system: PC3 xenograft; assay: PC3 xenograft in nude mice, serial passage; format: in vivo
Method: To test the effect of 14E3 in CRPC in vivo, nude mice bearing the CRPC cell line PC3 xenograft were injected intraperitoneally with anti-GREM1 antibody or IgG2a three times a week for 2 weeks (10 mg/kg body weight).

[11] = test system: PC-3 cells; assay: Scratch migration assay of PC-3 cells; format: cell-based, human; conditions: 10 μg/ml 14E3, 3 days
Method: PC-3 cells at log-growth phase were harvested and re-suspended in cell culture medium (DMEM medium supplied with 10% FBS). Cells were non-treated or treated with 1 μg/ml Gremlin or 10 μg/ml 14E3 or 10 μg/ml control mIgG2a for 3 days. Then cells were planted at 10^5 cells/well in 6-well cell culture plate. After cells reached 100% coverage of the bottom of wells, the medium was changed to serum free medium. Each well was made with one scratch using 200 μl-tip. The migration rate of cells were analyzed by calculating the area of cells growing on the scratch using Image J software.

[12] = test system: patient derived organoids (PDOs); assay: Patient derived organoids (PDOs) from CRPC patients; format: cell-based, human; conditions: PDOs from nine CRPC patients; to different degree
Method: We then tested whether the anti-GREM1 antibody display suppressive effect on patient derived organoids (PDOs). The PDOs were freshly collected from PCa patients at Ren Ji Hospital. Briefly tumor tissues from nine CRPC patients were harvested from surgery and cut into 1-5 mm3 and washed once with HBSS, the tissues was then digested to single cell suspension using CollagenaseII+10 μM Y-27632 at 37° ° C. for 4 hours, followed by neutralization of digestion using base culture medium. After that the tumor tissue was further digested using 1 ml TrypLE+10 μM Y-27632 for 15 minutes at 37° C. followed by neutralization using medium with 10% FBS. The resulting cells were resuspended in 50% matrigel+50% medium and 50 ul of the cell suspension was dispensed into each well of the 96-well plate. Afterward the prewarmed PDO medium (B27, N acetylcysteine, EGF, Noggin, R-sponsdin 1, A83-1, FGF10, FGF2, Prostaglandin E2, Nicotinamide, SB202190, DHT and Y27632) was added to the culture and fresh medium was added every 2-3 days.

B1: 14E3: mouse antibody having a heavy chain variable region of SEQ ID NO: 7, and a light chain variable region of SEQ ID NO: 8 (antibody, V domains shown)
VH: QIQLVQSGPELKKPGETVKISCKTSGSTFTTYGMAWMKQAPGKGLTWMGWINTLSGEPTYADDFKGRFAFSLKTSANTAYLQINNLKNEDAATYFCAREPMDYWGQGTSVIVSS
VL: DVVMTQTPLTLSITIGQPASISCKSSQSLLDSDGKTYLSWLLQRPDQSPKRLISLVSKLDSGVPDRITGSGSGTDFTLKISRVEAEDLGIYYCWQGAHFPLTFGAGTKLELK
[1]
  bodyweight: without influencing
[2]
  affinity and specificity to hGREM1: verified
[3]
  apoptosis: induced
[3]; antibody 10 μg/ml
  proliferation: inhibitory impact
  sphere formation: inhibitory impact
[4]
  inhibitory effect of 14E3 on PCa cells after BMPRII knockout: did not abrogate
[5]; AR dependent LNCaP cells, antibody 100 ng/ml with enzalutamide
  anti-tumor effect of Enzalutamide in combination with the antibody: potentiated
[5]; FIGS. 14D and 10N, combination with enzalutamide
  combination with enzalutamide on tumor inhibition (cell death, Annexin-V/DAPI staining): synergistic effects
[5]; LNCaP cells
  apoptosis: induced
  proliferation: inhibitory impact
  sphere formation: inhibitory impact
[6]
  gremlin-mediated increase in PSA-low LNCAP population: neutralized
[7]; LNCaP cells (FIG. 14C)
  inhibition of FGFR1/MEK/ERK signaling pathway: dose-dependent inhibition
[7]; PC3 and LNCaP cells
  inhibition of FGFR1/MEK/ERK signaling pathway: dose-dependent inhibition
[8]
  growth of PC3 tumor (tumor volume): reduced
  survival of mice bearing the tumor: prolonged
[9]
  formation of PCa metastases in the lung (micrometastases): potently reduce
[9]; vs isotype control
  average radiance intensity: obvious inhibition
[10]; i.p. 10 mg/kg three times a week for 2 weeks, vs IgG2a
  PC3 xenograft tumor growth: greatly prohibited
[10]; i.p. 10 mg/kg, serial passage
  tumor inhibition during secondary tumor passages: more pronounced
[11]
  GREM1 mediated acceleration of tumor cell migration: reduced such acceleration
[12]
  number of PDOs with reduced organoid growth: 7 out of the 9

— US20240190950A1, “METHOD OF TREATING DISEASES USING GREMLIN1 ANTAGONISTS” (SHANGHAI JIAO TONG UNIVERSITY, priority 2021, published 2024)
